# Test results as given in PubChem BioAssay AID588342 (National Center for Advancing Translational Sciences (NCATS), 2011).
# Out of some 360,000 compounds screened, about 25,000 (6.9%) were called active. The shares of active, inactive and inconclusive entries below differ from those in the screen. Calls come from the whole dose curve; as a rule, active = well fitted inhibition curve with a large enough effect; inconclusive = small, poorly fitted or top-dose-only effect; inactive = flat fitted curve, though single readings scatter. A potency beside an inconclusive call is a rough fit, not a confirmed value.
# Molecular target: Luciferin 4-monooxygenase (Photinus pyralis) (UniProt P08659)
# Assay: qHTS profiling assay for firefly luciferase inhibitor/activator using purifed enzyme and Km concentrations of substrates (counterscreen for miR-21 project); note: nearly all actives have a fitted effect of over 55% in size;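 for activity change, negative = inhibition: plate controls were vehicle for no effect and reference inhibitor for full effect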
# Settings: purified FLuc, luminescence inhibition; series mostly up to 57.5 µM; activity change, negative = inhibition: at the top concentration
# How it was run: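 Biochemical qHTS of compounds, final roughly 60 µM downward over six points, against 10 nM purified firefly luciferase using Km concentrations of substrates (10 uM D-luciferin, 10 uM ATP) in Tris acetate pH 7.5 buffer; luminescence output.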
# Potency is the fitted concentration of half-maximal effect; tags give direction and shape of the fitted curve.
# Chain of UniProt P08659 (P08659 whole entry, looked up): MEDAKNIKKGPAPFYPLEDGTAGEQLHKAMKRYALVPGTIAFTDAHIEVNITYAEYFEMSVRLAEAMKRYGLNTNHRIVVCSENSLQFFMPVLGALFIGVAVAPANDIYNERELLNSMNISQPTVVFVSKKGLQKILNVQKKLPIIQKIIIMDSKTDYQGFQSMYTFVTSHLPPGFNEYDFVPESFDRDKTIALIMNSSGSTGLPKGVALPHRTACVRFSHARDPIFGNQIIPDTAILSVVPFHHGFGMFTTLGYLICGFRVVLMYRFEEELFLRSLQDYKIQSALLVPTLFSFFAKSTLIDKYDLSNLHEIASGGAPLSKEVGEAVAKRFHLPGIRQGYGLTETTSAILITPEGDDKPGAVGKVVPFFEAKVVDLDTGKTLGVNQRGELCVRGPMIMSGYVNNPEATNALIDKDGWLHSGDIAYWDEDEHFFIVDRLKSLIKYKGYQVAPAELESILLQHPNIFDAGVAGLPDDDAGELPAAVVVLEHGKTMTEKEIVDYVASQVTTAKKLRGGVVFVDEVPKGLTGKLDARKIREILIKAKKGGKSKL
Structure (SMILES),Potency,"activity change, negative = inhibition"
CC1(C)OC(=O)C(=NNc2ccc(Cl)cc2)C(=O)O1,"inconclusive: 21.3 µM [inhibitor, single point]",
O=C(NC1CCCC1)c1ccc(CSc2nc3cccnc3n2Cc2ccccc2)cc1,,inactive: -14.7%
O=c1c2ccccc2cnn1-c1ccc2ccccc2c1,active: 1.2 µM,
NC(=O)c1c(N)sc2c1CCCCC2,"inconclusive: 30.1 µM [inhibitor, partial curve, poor fit]",
CN(C)CCNC(=O)c1ccc(COc2ccc(Cl)cc2Cl)cc1,"inconclusive: 26.9 µM [inhibitor, partial curve, poor fit]",
COc1ccc(CCNC(=O)CSCc2nc(-c3cccc(C)c3)oc2C)cc1OC,,inactive: -15.7%
CC(=O)Nc1ccc2nc(SCC(=O)Nc3ccc(N4CCOCC4)c(Cl)c3)sc2c1,active: 8.49 µM,
O=C(COc1ccc(Cl)cc1Cl)NN=C1CCCCC1,active: 7.57 µM,
CCC(=O)Nc1ccccc1-c1nc2ccccc2n(CC(=O)Nc2ccc(C)c(C)c2)c1=O,,inactive: -0.959%
CCSc1ccc(-c2ccc(C)cc2)nn1,active: 2.39 µM,
CCCCOc1ccc(OCCCN2CCOCC2)cc1,"inconclusive: 26.9 µM [inhibitor, partial curve, poor fit]",
O=C(CCCc1c[nH]c2ccccc12)NCc1cccs1,"inconclusive: 37.9 µM [inhibitor, partial curve, poor fit]",
O=C(Nc1nc2ccc(S(=O)(=O)N3CCCC3)cc2s1)c1cccs1,"inconclusive: 26.9 µM [inhibitor, partial curve, poor fit]",
O=C(N/N=C/c1cccnc1)c1cccc(Cl)c1,"inconclusive: 23.9 µM [inhibitor, single point]",
Cc1ccc(S(=O)(=O)NCCNC(=O)CN2CCOCC2)cc1,,inactive: 0.322%
CCc1ccc(NC(=S)N(Cc2ccc(Cl)cc2)Cc2ccc(C(=O)O)cc2)cc1,"inconclusive: 26.9 µM [inhibitor, partial curve, poor fit]",
Cc1ccc(NC(=O)CCCn2c(=S)[nH]c3ccsc3c2=O)cc1C,"inconclusive: 21.3 µM [inhibitor, partial curve, poor fit]",
CCOC(=O)N1CCN(CC(O)COc2ccc3c(c2)CCC3)CC1 (centres undefined),,inactive: -0.534%
O=S(=O)(c1ccc(OC(F)(F)F)cc1)N1CCC(c2nc3ccccc3s2)CC1,,inactive: -3.66%
O=C(O)c1cc(N/N=C/c2c[nH]c3ccccc23)ccc1Cl,active: 6.75 µM,
O=C(Cn1cc(SCc2ccccc2F)c2ccccc21)N1CCCC1,active: 16.9 µM,
Cc1[nH]n(-c2ccccc2)c(=O)c1/C=N/NC(=O)c1ccccc1F,"inconclusive: 21.3 µM [inhibitor, partial curve, poor fit]",
CC(=O)Nc1cccc(C(=O)/C=C/c2cccs2)c1,active: 13.5 µM,
COc1ccc(NC(C)=O)cc1NC(C)C(=O)Nc1cccc2ccccc12 (centres undefined),,inactive: -3.37%
CCCOc1ccc(-c2nc(C#N)c(NCCCn3ccnc3)o2)cc1,"inconclusive: 13.5 µM [inhibitor, partial curve]",

Structure (SMILES),Potency,"activity change, negative = inhibition"
CC(/C=C1\SC(=S)N(NC(=O)c2ccc(C)cc2)C1=O)=C\c1ccccc1,"inconclusive: 37.9 µM [inhibitor, single point]",
COc1ccc(NC(=O)c2c(NCc3cccs3)sc3c2CCCCC3)c(OC)c1,"inconclusive: 26.9 µM [inhibitor, partial curve, poor fit]",
Cc1[nH]nc2c1C1(CCOCC1)C(C#N)=C(N)O2,,inactive: 1.9%
CCCNC(=O)CN(c1ccc(F)c(Cl)c1)S(C)(=O)=O,,inactive: 5.76%
CN(c1cccc(NC(=O)CCSc2ccccc2)c1)S(C)(=O)=O,"inconclusive: 19 µM [inhibitor, partial curve, poor fit]",
CCOc1ccc2nc(N3CCC(C(=O)NCCCN4CCOCC4)CC3)sc2c1,active: 8.49 µM,
Cc1ccc(C(=O)O/N=C(\c2ccccc2)c2ccncc2)cc1,"inconclusive: 37.9 µM [inhibitor, partial curve, poor fit]",
CC(=O)c1ccc(NC(=O)c2noc3c2CCCCC3)cc1,active: 7.57 µM,
CC(C)n1c(C(=O)OCC(=O)NCc2ccc3c(c2)OCO3)cc2sccc21,,inactive: -2.15%
CNC(=O)c1ccc2nc(Cc3ccccc3)oc2c1,"inconclusive: 19 µM [inhibitor, partial curve, poor fit]",
CC1CCN(C(=O)CSc2nc3ccccc3s2)CC1,active: 12 µM,
Cc1cc(/C=C2/C(=O)NN(c3ccccc3)C2=O)c(C)n1-c1ccc(O)cc1,active: 0.151 µM,
C=CCNc1nc(-c2ccc(OC)cc2OC)cs1,active: 12 µM,
O=C(N/N=C/c1ccc2c(c1)OCO2)c1ccn(Cc2ccc(Cl)cc2)n1,"inconclusive: 1.51 µM [inhibitor, partial curve, poor fit]",
CC(C)c1ccc2oc(-c3ccc(Cl)c(NC(=O)Cc4ccccc4)c3)nc2c1,active: 4.26 µM,
CCOC(=O)N1CCC(NC(=O)c2ccc3c(c2)N(Cc2ccc(Cl)cc2)C(=O)c2ccccc2S3(=O)=O)CC1,,inactive: -3.03%
Cc1ccc(C(=O)c2oc3ccccc3c2NC(=O)C(C)Oc2ccccc2Cl)cc1 (centres undefined),,inactive: -0.387%
Cc1ccccc1Oc1cccc(C(=O)/C(C#N)=C/N(C)C)c1,"inconclusive: 21.3 µM [inhibitor, single point]",
O=C(N/N=C/c1ccc(OC(=O)c2ccccc2Cl)cc1)c1cc(O)cc(O)c1,"inconclusive: 23.9 µM [inhibitor, single point]",
CSc1nc(-c2cccs2)c(C#N)c(=O)[nH]1,"inconclusive: 37.9 µM [inhibitor, partial curve, poor fit]",
O=C(Nc1cccc(NC(=O)c2cccs2)c1)c1ccc2c(c1)OCCO2,active: 7.57 µM,
CC(=O)Nc1nc(SCC(=O)Nc2nnc(C)s2)[nH]c(=O)c1NC(=O)c1cccs1,"inconclusive: 37.9 µM [inhibitor, partial curve, poor fit]",
CC(C)c1nnc(NC(=O)c2ccc3ccccc3c2)s1,active: 2.13 µM,
Cc1ccc(C)c(NC(=O)c2cc(=O)c3ccccc3o2)c1,"inconclusive: 26.9 µM [inhibitor, single point]",
